This is one part of the list.
What was measured:
Assay in all cases: glycan array binding signal (z-score within array); higher = stronger binding
Settings in all cases: glycan notation: IUPAC condensed, linker removed
[1] = biological target: Neu5Ac(a2-6)Gal(b1-4)GlcNAc(b1-2)Man(a1-6)[GlcNAc(b1-2)Man(a1-3)]Man(b1-4)GlcNAc(b1-4)GlcNAc
In short: (§1)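 From the Consortium for Functional Glycomics database, 3228 arrays were curated, keeping only those whose protein sequence was available. Binding is given as a within-array Z-score averaged across arrays sharing a protein sequence and across linkers. Negative Z-scores can be read as non-binding.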

[2] = biological target: Neu5Ac(a2-6)Gal(b1-4)GlcNAc(b1-2)Man(a1-6)[Man(a1-3)]Man(b1-4)GlcNAc(b1-4)GlcNAc
In short: as §1

[3] = biological target: Neu5Ac(a2-6)Gal(b1-4)GlcNAc(b1-2)[Neu5Ac(a2-6)Gal(b1-4)GlcNAc(b1-4)]Man(a1-3)[GlcNAc(b1-4)][Neu5Ac(a2-6)Gal(b1-4)GlcNAc(b1-2)[Neu5Ac(a2-6)Gal(b1-4)GlcNAc(b1-6)]Man(a1-6)]Man(b1-4)GlcNAc(b1-4)GlcNAc
In short: as §1

[4] = biological target: Neu5Ac(a2-6)Gal(b1-4)GlcNAc(b1-2)[Neu5Ac(a2-6)Gal(b1-4)GlcNAc(b1-4)]Man(a1-3)[GlcNAc(b1-4)][Neu5Ac(a2-6)Gal(b1-4)GlcNAc(b1-4)Man(a1-6)]Man(b1-4)GlcNAc(b1-4)GlcNAc
In short: as §1

[5] = biological target: Neu5Ac(a2-6)Gal(b1-4)GlcNAc(b1-2)[Neu5Ac(a2-6)Gal(b1-4)GlcNAc(b1-6)]Man(a1-6)[Neu5Ac(a2-6)Gal(b1-4)GlcNAc(b1-2)Man(a1-3)][GlcNAc(b1-4)]Man(b1-4)GlcNAc(b1-4)GlcNAc
In short: as §1

[6] = biological target: Neu5Ac(a2-6)Gal(b1-4)GlcNAc(b1-3)Gal(b1-3)GlcNAc
In short: as §1

[7] = biological target: Neu5Ac(a2-6)Gal(b1-4)GlcNAc(b1-3)Gal(b1-4)GlcNAc
In short: as §1

[8] = biological target: Neu5Ac(a2-6)Gal(b1-4)GlcNAc(b1-3)Gal(b1-4)GlcNAc(b1-2)Man(a1-3)[Neu5Ac(a2-6)Gal(b1-4)GlcNAc(b1-3)Gal(b1-4)GlcNAc(b1-2)Man(a1-6)]GalNAc
In short: as §1

[9] = biological target: Neu5Ac(a2-6)Gal(b1-4)GlcNAc(b1-3)Gal(b1-4)GlcNAc(b1-3)Gal(b1-4)GlcNAc
In short: as §1

[10] = biological target: Neu5Ac(a2-6)Gal(b1-4)GlcNAc(b1-3)Gal(b1-4)GlcNAc(b1-3)Gal(b1-4)GlcNAc(b1-2)Man(a1-3)[Neu5Ac(a2-6)Gal(b1-4)GlcNAc(b1-3)Gal(b1-4)GlcNAc(b1-3)Gal(b1-4)GlcNAc(b1-2)Man(a1-6)]GalNAc
In short: as §1

[11] = biological target: Neu5Ac(a2-6)Gal(b1-4)GlcNAc(b1-3)Gal(b1-4)GlcNAc(b1-3)GalNAc
In short: as §1

[12] = biological target: Neu5Ac(a2-6)Gal(b1-4)GlcNAc(b1-3)Gal(b1-4)GlcNAc(b1-3)[Neu5Ac(a2-6)Gal(b1-4)GlcNAc(b1-3)Gal(b1-4)GlcNAc(b1-6)]GalNAc
In short: as §1

[13] = biological target: Neu5Ac(a2-6)Gal(b1-4)GlcNAc(b1-3)Gal(b1-4)GlcNAc(b1-6)[Gal(b1-3)]GalNAc
In short: as §1

[14] = biological target: Neu5Ac(a2-6)Gal(b1-4)GlcNAc(b1-3)Gal(b1-4)[Fuc(a1-3)]GlcNAc(b1-3)Gal(b1-4)[Fuc(a1-3)]GlcNAc
In short: as §1

[15] = biological target: Neu5Ac(a2-6)Gal(b1-4)GlcNAc(b1-3)GalNAc
In short: as §1

[16] = biological target: Neu5Ac(a2-6)Gal(b1-4)GlcNAc(b1-3)[Neu5Ac(a2-6)Gal(b1-4)GlcNAc(b1-6)]GalNAc
In short: as §1

[17] = biological target: Neu5Ac(a2-6)Gal(b1-4)GlcNAc(b1-6)GalNAc
In short: as §1

[18] = biological target: Neu5Ac(a2-6)Gal(b1-4)GlcNAc(b1-6)[Gal(b1-3)GlcNAc(b1-3)]Gal(b1-4)Glc
In short: as §1

[19] = biological target: Neu5Ac(a2-6)Gal(b1-4)GlcNAc(b1-6)[Gal(b1-3)]GalNAc
In short: as §1

[20] = biological target: Neu5Ac(a2-6)Gal(b1-4)GlcNAc6S
In short: as §1

Neu5Ac(a2-6)GalNAc = biological target: Neu5Ac(a2-6)GalNAc
In short: as §1

[21] = biological target: Neu5Ac(a2-6)GalNAc(b1-4)GlcNAc
In short: as §1

[22] = biological target: Neu5Ac(a2-6)GalNAc(b1-4)GlcNAc6S
In short: as §1

[23] = biological target: Neu5Ac(a2-6)GlcNAc(b1-4)GlcNAc
In short: as §1

[24] = biological target: Neu5Ac(a2-6)GlcNAc(b1-4)GlcNAc(b1-4)GlcNAc
In short: as §1

Neu5Ac(a2-8)Neu5Ac = biological target: Neu5Ac(a2-8)Neu5Ac
In short: as §1

[25] = biological target: Neu5Ac(a2-8)Neu5Ac(a2-3)Gal(b1-3)GalNAc(b1-4)[Neu5Ac(a2-3)]Gal(b1-4)Glc
In short: as §1

[26] = biological target: Neu5Ac(a2-8)Neu5Ac(a2-3)Gal(b1-3)GalNAc(b1-4)[Neu5Ac(a2-8)Neu5Ac(a2-3)]Gal(b1-4)Glc
In short: as §1

B1: rCNL (Clitocybe nebularis), B2ZRS9 (protein)
chain: SITPGTYNITNVAYTNRLIDLTGSNPAENTLIIGHHLNKTPSGYGNQQWTLVQLPHTTIYTMQAVNPQSYVRVRDDNLVDGAALVGSQQPTPVSIESAGNSGQFRIKIPNLGLALTLPSDANSTPIVLGEVDETSTNQLWAFESVSAV
glycan array binding signal (z-score) [1]: -0.237 | glycan array binding signal (z-score) [2]: -0.253 | glycan array binding signal (z-score) [3]: -0.225 | glycan array binding signal (z-score) [4]: -0.225 | glycan array binding signal (z-score) [5]: -0.222 | glycan array binding signal (z-score) [6]: -0.257 | glycan array binding signal (z-score) [7]: -0.043 | glycan array binding signal (z-score) [8]: -0.211 | glycan array binding signal (z-score) [9]: -0.014 | glycan array binding signal (z-score) [10]: -0.13 | glycan array binding signal (z-score) [11]: -0.22 | glycan array binding signal (z-score) [12]: 0.003 | glycan array binding signal (z-score) [13]: -0.185 | glycan array binding signal (z-score) [14]: -0.274 | glycan array binding signal (z-score) [15]: -0.295 | glycan array binding signal (z-score) [16]: -0.221 | glycan array binding signal (z-score) [17]: -0.214 | glycan array binding signal (z-score) [18]: -0.221 | glycan array binding signal (z-score) [19]: -0.224 | glycan array binding signal (z-score) [20]: -0.244 | glycan array binding signal (z-score) (Neu5Ac(a2-6)GalNAc): -0.31 | glycan array binding signal (z-score) [21]: -0.29 | glycan array binding signal (z-score) [22]: -0.189 | glycan array binding signal (z-score) [23]: -0.317 | glycan array binding signal (z-score) [24]: -0.307 | glycan array binding signal (z-score) (Neu5Ac(a2-8)Neu5Ac): -0.306 | glycan array binding signal (z-score) [25]: -0.22 | glycan array binding signal (z-score) [26]: -0.213
